Experimental data reported in US11524046B2, “Biofilm prevention, disruption and treatment with bacteriophage lysin” (priority 2012, dated 2022).

Test system: MRSA biofilms grown on catheters (strain ATCC BAA-42)
Test: Catheter biofilm eradication in vitro, methylene blue staining
Conditions: concentrations as high as 5000×MIC (5 mg/ml)

## CCCCCCCCCC(=O)N[C@@H](Cc1c[nH]c2ccccc12)C(=O)N[C@H](CC(N)=O)C(=O)N[C@@H](CC(=O)O)C(=O)N[C@@H]1C(=O)NCC(=O)N[C@@H](CCCN)C(=O)N[C@@H](CC(=O)O)C(=O)N[C@H](C)C(=O)N[C@@H](CC(=O)O)C(=O)NCC(=O)N[C@H](CO)C(=O)N[C@@H]([C@H](C)CC(=O)O)C(=O)N[C@@H](CC(=O)c2ccccc2N)C(=O)O[C@@H]1C [Daptomycin, daptomycin]
  biofilm removal from the catheter: did not remove the biofilm
